# Test results: the supplement of paper PMC9174493
# Structures can show the parent of a compound that is named as a salt. Some of the results follow. Single values of this set are uncertain. Values with irradiation are relative to irradiated vehicle.
# Test system: A549-Dual
# Experiment: ISRE reporter (Lucia luciferase) activity, viability-corrected, relative to vehicle (fold change vs vehicle); higher = more activation of STING-IRF / NF-kB immune response reporter
# Settings: 0.3 µM; irradiation: 8 Gy/4 fr
row,Compound,ISRE reporter
1,CCC(=O)OCC(=O)C1(OC(=O)CC)C(C)CC2C3CCC4=CC(=O)C=CC4(C)C3(Cl)C(O)CC21C (stereo not given) [Beclomethasone dipropionate],0.0748
2,CC(=O)Nc1ccc(OC(=O)c2ccccc2OC(C)=O)cc1 [Benorylate],0.957
3,Nc1ccccc1NC(=O)c1ccc(CNC(=O)OCc2cccnc2)cc1 [Entinostat (MS-275)],0.468
4,COc1cc(N2CCC(N3CCN(C)CC3)CC2)ccc1Nc1ncc(Cl)c(Nc2ccccc2P(C)(C)=O)n1,0.912
5,Cc1c(-c2ccc(-c3ccccc3F)cc2)nc2ccc(F)cc2c1C(=O)O [Brequinar],0.753
6,CCC1/C=C(\C)CC(C)CC(OC)C2OC(O)(C(=O)C(=O)N3CCCCC3C(=O)OC(/C(C)=C/C3CCC(Cl)C(OC)C3)C(C)C(O)CC1=O)C(C)CC2OC (stereo not given) [Pimecrolimus],1.11
7,COC(=O)/C=C/C(=O)OC [Dimethyl Fumarate],0.646
8,Cc1cc(Nc2ncc(Cl)c(Nc3ccccc3S(=O)(=O)C(C)C)n2)c(OC(C)C)cc1C1CCNCC1 [Ceritinib (LDK378)],1.06
9,Nc1nc(Cl)nc2c1ncn2C1CC(O)C(CO)O1 (stereo not given) [Cladribine],1.04
10,CC12CCC(=O)C=C1CCC1C2C(O)CC2(C)C1CCC2(O)C(=O)CO (stereo not given) [Hydrocortisone],0.199
11,Cc1coc2c1C(=O)C(=O)c1c-2ccc2c(C)cccc12 [Tanshinone I],0.858
12,Cn1cnc([N+](=O)[O-])c1Sc1ncnc2nc[nH]c12 [Azathioprine],0.945
13,O=c1ccc2cc3ccoc3cc2o1 [Psoralen],0.963
14,CCC(=O)NS(=O)(=O)c1ccc(-c2c(-c3ccccc3)noc2C)cc1 [Parecoxib],1.06
15,COc1ccc(-c2ccc3cc(C(=O)O)ccc3c2)cc1C12CC3CC(CC(C3)C1)C2 [Adapalene],1.09
16,CCC(C(=O)O)c1ccc(N2Cc3ccccc3C2=O)cc1 (stereo not given) [Indobufen],0.941
17,COC1CC2CCC(C)C(O)(O2)C(=O)C(=O)N2CCCCC2C(=O)OC(C(C)CC2CCC(O)C(OC)C2)CC(=O)C(C)/C=C(\C)C(O)C(OC)C(=O)C(C)CC(C)/C=C/C=C/C=C/1C (stereo not given) [Rapamycin (Sirolimus)],0.802
18,COc1ccc(C2CNC(=O)C2)cc1OC1CCCC1 (stereo not given) [Rolipram],0.912
19,Nc1nc(N)c2nc(-c3ccccc3)c(N)nc2n1 [Triamterene],1.03
20,CN(C)CCN1C(=O)c2cccc3cc(N)cc(c23)C1=O [Amonafide],1.89

row,Compound,ISRE reporter
1,CN1CCCC1CCOC(C)(c1ccccc1)c1ccc(Cl)cc1.O=C(O)/C=C/C(=O)O (stereo not given) [Clemastine Fumarate],1.29
2,CC12C=CC(=O)C=C1CCC1C3CC(O)C(O)(C(=O)CO)C3(C)CC(O)C12F (stereo not given) [Triamcinolone],0.18
3,CC1CC2C3CCC4=CC(=O)C=CC4(C)C3C(=O)CC2(C)C1(O)C(=O)CO (stereo not given) [Meprednisone],0.778
4,CCS(=O)(=O)O.COC(=O)c1ccc2c(c1)NC(=O)/C2=C(\Nc1ccc(N(C)C(=O)CN2CCN(C)CC2)cc1)c1ccccc1 [Nintedanib Ethanesulfonate Salt],1.08
5,CCCCCCCCCCCCCCCCCCOP(=O)([O-])OC1CC[N+](C)(C)CC1 [Perifosine (KRX-0401)],0.853
6,CCC1(O)CC2CN(CCc3c([nH]c4ccccc34)C(C(=O)OC)(c3cc4c(cc3OC)N(C=O)C3C(O)(C(=O)OC)C(OC(C)=O)C5(CC)C=CCN6CCC43C65)C2)C1 (stereo not given) [Vincristine],0.0839
7,Cl.Nc1ccn(C2OC(CO)C(O)C2O)c(=O)n1 (stereo not given) [Cytarabine hydrochloride],0.649
8,CC(=O)OC(C)C(C)C(=O)OCC12C3CC4(C)C(=CCC5C6(C)CCC(OC7OC(C(=O)[O][Na])C(OC8OC(CO)C(O)C(O)C8O)C(O)C7OC7OCC(O)C(O)C7O)C(C)(CO)C6CCC54C)C1CC(C)(C)C(O3)C2O (stereo not given) [Sodium Aescinate],1.22
9,CCC(=O)OC1(C(=O)SCF)C(C)CC2C3CC(F)C4=CC(=O)C=CC4(C)C3(F)C(O)CC21C (stereo not given) [Fluticasone propionate],0.0434
10,CCCCC1(COC(=O)CCC(=O)O)C(=O)N(c2ccccc2)N(c2ccccc2)C1=O [Suxibuzone],1.26
11,CS(=O)(=O)Nc1cc2occ(NC=O)c(=O)c2cc1Oc1ccccc1 [Iguratimod],0.926
12,COc1cc2nccc(Oc3ccc(NC(=O)Nc4cc(C)on4)c(Cl)c3)c2cc1OC [Tivozanib (AV-951)],0.816
13,Cc1ccc(S(=O)(=O)O)cc1.NC(=O)c1cccc2cn(-c3ccc(C4CCCNC4)cc3)nc12 (stereo not given) [Niraparib (MK-4827) tosylate],0.81
14,CC(C)OC(=O)CCC/C=C\CC1C(O)CC(O)C1CCC(O)CCc1ccccc1 (stereo not given) [Latanoprost],0.606
15,"O=c1[nH]cc(F)c(=O)[nH]1 [Fluorouracil (5-Fluoracil, 5-FU)]",1.76
16,CC1(C(=O)O)CCC2(C)CCC3(C)C(=CC(=O)C4C5(C)CCC(OC6OC(C(=O)O)C(O)C(O)C6OC6OC(C(=O)O)C(O)C(O)C6O)C(C)(C)C5CCC43C)C2C1.N.N (stereo not given) [Diammonium Glycyrrhizinate],0.924
17,"CC1(C)CCC(CN2CCN(c3ccc(C(=O)NS(=O)(=O)c4ccc(NCC5CCOCC5)c([N+](=O)[O-])c4)c(Oc4cnc5[nH]ccc5c4)c3)CC2)=C(c2ccc(Cl)cc2)C1 [Venetoclax (ABT-199, GDC-0199)]",0.551
18,CCN(CC)Cc1cc(Nc2ccnc3cc(Cl)ccc23)ccc1O.Cl.Cl [Amodiaquine hydrochloride],0.865
19,CCN(C(=O)c1c(O)c2c(Cl)cccc2n(C)c1=O)c1ccccc1 [Laquinimod],0.961
20,O=C(c1ccc(OCCN2CCCCC2)cc1)c1c(-c2ccc(O)cc2)sc2cc(O)ccc12 [Raloxifene],1.26
